# Source: paper PMC4336329 (PLoS ONE, 2015)
# Among all 310,000 compounds or so, about 2,200 (0.71%) showed an effect of 50% or more. The effect is printed as a negative number. Some of the results follow.
# Molecular target: human ether-à-go-go-related gene (hERG) potassium channel (human, UniProt Q12809)
# Assay: primary screen, population patch clamp on CHO cells stably expressing hERG
# Sequence of human ether-à-go-go-related gene (hERG) potassium channel (Q12809 whole entry, looked up): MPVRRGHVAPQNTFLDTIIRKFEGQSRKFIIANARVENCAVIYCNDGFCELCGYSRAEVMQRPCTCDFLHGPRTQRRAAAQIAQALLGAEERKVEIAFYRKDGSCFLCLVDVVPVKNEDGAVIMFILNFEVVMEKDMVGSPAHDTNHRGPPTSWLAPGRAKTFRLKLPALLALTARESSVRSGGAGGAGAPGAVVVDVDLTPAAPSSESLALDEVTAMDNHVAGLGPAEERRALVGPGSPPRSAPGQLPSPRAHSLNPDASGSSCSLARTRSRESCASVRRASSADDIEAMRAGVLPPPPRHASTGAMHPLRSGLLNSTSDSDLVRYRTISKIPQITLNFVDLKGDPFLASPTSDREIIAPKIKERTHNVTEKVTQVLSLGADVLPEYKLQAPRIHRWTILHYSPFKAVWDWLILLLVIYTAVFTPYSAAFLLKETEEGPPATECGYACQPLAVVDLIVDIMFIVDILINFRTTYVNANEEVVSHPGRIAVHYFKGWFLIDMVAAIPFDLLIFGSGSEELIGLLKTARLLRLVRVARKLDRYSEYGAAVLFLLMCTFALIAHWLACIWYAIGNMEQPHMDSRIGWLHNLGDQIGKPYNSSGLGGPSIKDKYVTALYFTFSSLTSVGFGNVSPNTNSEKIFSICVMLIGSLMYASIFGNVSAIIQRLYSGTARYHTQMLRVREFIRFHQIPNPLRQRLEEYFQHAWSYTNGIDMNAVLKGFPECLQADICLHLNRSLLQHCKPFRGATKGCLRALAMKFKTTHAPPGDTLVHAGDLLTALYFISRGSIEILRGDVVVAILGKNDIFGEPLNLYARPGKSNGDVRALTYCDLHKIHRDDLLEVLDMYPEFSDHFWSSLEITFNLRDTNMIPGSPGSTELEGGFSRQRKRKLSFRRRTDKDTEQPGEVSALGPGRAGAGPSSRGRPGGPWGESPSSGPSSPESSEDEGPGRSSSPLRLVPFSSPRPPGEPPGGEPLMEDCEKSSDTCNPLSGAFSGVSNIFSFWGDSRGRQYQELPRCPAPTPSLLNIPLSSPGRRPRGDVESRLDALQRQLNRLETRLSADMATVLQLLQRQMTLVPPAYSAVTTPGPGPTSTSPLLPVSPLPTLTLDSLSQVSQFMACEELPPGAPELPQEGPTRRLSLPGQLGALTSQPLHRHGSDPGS
row,SMILES,"hERG current change (%, negative = inhibition) at 1uM [%]"
1,Cc1cc(NC(=O)CSC2=NS(=O)(=O)c3ccccc3N2)no1,14.6
2,O=C(N/C(=C\c1ccc(O)cc1)C(=O)N1CCCCC1)c1ccccc1,5.86
3,O=C(O)c1cccc(N2C(=O)c3cccnc3C2=O)c1,11.1
4,Cc1cccc(NC(=O)C2CCN(S(=O)(=O)c3cccc4nsnc34)CC2)c1,5.39
5,c1ccc(CNc2nc3ccccc3n3cnnc23)cc1,7.94
6,CC(C)(C)c1ccc(/C=N/Nc2ccc(C(=O)O)cc2)cc1,3.13
7,COc1ccc(-n2ccnc2SCC(=O)NC2CCCC2)c(OC)c1,7.43
8,COc1cccc(OC)c1C(=O)Nc1cccc2c1CCCC2,15.3
9,COc1ccc(Oc2coc3cc(OC(=O)c4cncc(Br)c4)ccc3c2=O)cc1,11.1
10,COc1cccc(NC(C)=[N+](C)CCNS(=O)(=O)c2ccc(Cl)cc2)c1.[I-],-36.6
11,CC(C)c1ccc(C2N3CC4([N+](=O)[O-])CN2CC([N+](=O)[O-])(C3)C4(C)C)cc1 (stereo not shown),22.6
12,Cc1ccc2cc([N+](=O)[O-])ccc2n1,13
13,CCOc1cc2[nH]c(=S)n(CCCC(=O)NCc3ccccn3)c(=O)c2cc1OCC,11.3
14,Oc1[nH]c2ccccc2c1N=NC(=S)NCCc1ccccc1,8.33
15,CC1=NN(c2ccc(C(=O)O)cc2)C(=O)CC1,14.3
16,N#Cc1c(N)nc(SCC(=O)NCc2ccc3c(c2)OCO3)c(C#N)c1-c1cccs1,-2.25
17,CCCS(=O)(=O)N1CCCC(C(=O)N2CCC(Cc3ccccc3)CC2)C1 (stereo not shown),4.01
18,Cc1noc(C)c1COc1ccccc1C(=O)N(C)Cc1ccco1,9.46
19,CCOC(=O)CC1C(=O)NCCN1C(=O)Nc1ccc(Cl)cc1 (stereo not shown),7.85
20,CCOC(=O)CC(=O)CSc1nc2c(cc1C#N)CCCCCC2,-3.51
21,CC(/C=N\NC(=O)CN1CCN(Cc2ccccc2)CC1)=C\c1ccco1,-0.21
22,O=C(CSc1nnc(Nc2ccccc2)s1)Nc1cccnc1Cl,2.05
23,COCCCNC(=O)CSc1c2c(nc3ccc(Cl)cc13)CCCC2,12.1
24,CCn1c(O)c(/C=N/N=C/c2ccccc2)c2ccc(C3=NNC(=O)CC3)cc21,8.69
25,CC1CCCN(C(=O)Nc2cccc(NC(=O)N3CCCC(C)C3C)c2)C1C (stereo not shown),2.73
